In the supplement of paper PMC4604168 (melanoma cell lines):
This is one part of the list. Single values are uncertain, as repeats are few or missing.

test system: RPMI7951; experiment: cell count relative to DMSO control; melanoma cells; higher = more viable cells; conditions: library dose: standard library concentration; 72 h
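Further: cells treated in 1,536-well plates, then fixed and DAPI-stained, with nuclei counted from automated high-throughput microscope images.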

| Structure (SMILES) | cell count [%] |
| --- | --- |
| NC(=O)c1ccc(N(C(N)=O)c2c(F)cccc2F)nc1-c1ccc(F)cc1F + O=C(O)c1ccc(-c2c[nH]c3ncc(-c4ccccc4)cc23)cc1C1CCCC1 [GSK650394] (first compound 2 µM, partner dose 0.8 µM) | 86.7 |
| CCCCCCCCc1ccc(CCC(N)(CO)CO)cc1 [fingolimod] + CS(=O)(=O)CCNCc1ccc(-c2ccc3ncnc(Nc4ccc(OCc5cccc(F)c5)c(Cl)c4)c3c2)o1 [lapatinib] (first compound 10 µM, partner dose 4 µM) | 1.18 |
| CC(C)(C)c1cnc(CSc2cnc(NC(=O)C3CCNCC3)s2)o1 + CN(NC(=O)CC(=O)NN(C)C(=S)c1ccccc1)C(=S)c1ccccc1 [STA4783] (first compound 0.05 µM, partner dose 0.03 µM) | 26.9 |
| CCCCCCCCc1ccc(CCC(N)(CO)CO)cc1 [fingolimod] + COc1ccc(Cl)c(Nc2nc3ccccc3nc2NS(=O)(=O)c2cccc(NC(=O)C(C)(C)N)c2)c1 [XL147] (first compound 10 µM, partner dose 4 µM) | 1.87 |
| CCCCCCCCc1ccc(CCC(N)(CO)CO)cc1 [fingolimod] + C[C@@H]1CCN(C(=O)CC#N)C[C@@H]1N(C)c1ncnc2[nH]ccc12 [CP690550] (first compound 10 µM, partner dose 5 µM) | 1.28 |
| COc1cc2c(Oc3ccc4[nH]c(C)cc4c3F)ncnc2cc1OCCCN1CCCC1 [cediranib] + CCN(CC)CCCCNc1ncc2cc(-c3cc(OC)cc(OC)c3)c(NC(=O)NC(C)(C)C)nc2n1 [PD173074] (first compound 2 µM, partner dose 0.5 µM) | 66 |
| NC(=O)c1ccc(N(C(N)=O)c2c(F)cccc2F)nc1-c1ccc(F)cc1F + CN(C)S(=O)(=O)c1ccc2c(c1)/C(=C/c1cc3c([nH]1)CCCC3)C(=O)N2 [SU6656] (first compound 2 µM, partner dose 2 µM) | 37.7 |
| CCCCCCCCc1ccc(CCC(N)(CO)CO)cc1 [fingolimod] + COCC[n+]1c2c(n(Cc3cnccn3)c1C)C(=O)c1ccccc1C2=O [YM155] (first compound 10 µM, partner dose 0.002 µM) | 1.18 |
| CC(C)(C)c1cnc(CSc2cnc(NC(=O)C3CCNCC3)s2)o1 + COc1ccc2c(c1)CCC1C2CCC2(C)C(NCCCCCCN3C(=O)C=CC3=O)CCC12 [U73122] (first compound 0.05 µM, partner dose 2 µM) | 19.5 |
| CC(C)(C)c1cnc(CSc2cnc(NC(=O)C3CCNCC3)s2)o1 + COc1ccc(COc2ccc(Cc3cnc(N)nc3N)cc2OC)cc1 [GW2580] (first compound 0.05 µM, partner dose 5 µM) | 49 |

test system: RVH-421; experiment: as above; conditions: library dose: standard library concentration; 72 h

| Structure (SMILES) | cell count [%] |
| --- | --- |
| COc1cc2c(Oc3ccc4[nH]c(C)cc4c3F)ncnc2cc1OCCCN1CCCC1 [cediranib] + N#Cc1c(O)c2c(-c3ccc(-c4ccccc4O)cc3)csc2[nH]c1=O [A769662] (first compound 2 µM, partner dose 10 µM) | 87.4 |
| CC(C)(C)c1cnc(CSc2cnc(NC(=O)C3CCNCC3)s2)o1 + CN(C)S(=O)(=O)c1ccc2c(c1)/C(=C/c1cc3c([nH]1)CCCC3)C(=O)N2 [SU6656] (first compound 0.05 µM, partner dose 2 µM) | 75.3 |
| COc1cc2c(Oc3ccc4[nH]c(C)cc4c3F)ncnc2cc1OCCCN1CCCC1 [cediranib] + COc1ccc(COc2ccc(Cc3cnc(N)nc3N)cc2OC)cc1 [GW2580] (first compound 2 µM, partner dose 5 µM) | 104 |
| CCCCCCCCc1ccc(CCC(N)(CO)CO)cc1 [fingolimod] + OCCn1cc(-c2cnc3nnn(Cc4ccc5ncccc5c4)c3n2)cn1 [PF04217903] (first compound 10 µM, partner dose 5 µM) | 63 |
| NC(=O)c1ccc(N(C(N)=O)c2c(F)cccc2F)nc1-c1ccc(F)cc1F + Clc1ccc(Nc2nnc(Cc3ccncc3)c3ccccc23)cc1 [vatalanib] (first compound 2 µM, partner dose 10 µM) | 99.4 |
| CCc1ccc(CCOc2ccc(CC3SC(=O)NC3=O)cc2)nc1 (centres undefined) [pioglitazone] + CC(C)CCN1c2nc(Nc3cc(F)c(O)c(F)c3)ncc2N(C)C(=O)C1C [BID1870] (first compound 10 µM, partner dose 1 µM) | 83.5 |
| Cc1ccc(NC(=O)c2cccc(N(C)C)c2)cc1NC(=O)c1ccc(O)cc1 + CN(C)S(=O)(=O)c1ccc2c(c1)/C(=C/c1cc3c([nH]1)CCCC3)C(=O)N2 [SU6656] (first compound 10 µM, partner dose 2 µM) | 68.6 |
| NC(=O)c1ccc(N(C(N)=O)c2c(F)cccc2F)nc1-c1ccc(F)cc1F + Cc1cc(N2CCOCC2)cc2[nH]c(-c3c(NC[C@@H](O)c4cccc(Cl)c4)cc[nH]c3=O)nc12 [BMS536924] (first compound 2 µM, partner dose 1 µM) | 70.7 |
| Cc1ccc(NC(=O)c2cccc(N(C)C)c2)cc1NC(=O)c1ccc(O)cc1 + CCCCCCCCCCCC1=C(O)C(=O)C=C(O)C1=O [Embelin] (first compound 10 µM, partner dose 6 µM) | 64.4 |
| CN(NC(=O)CC(=O)NN(C)C(=S)c1ccccc1)C(=S)c1ccccc1 + Cn1cc(/C=C2\C(=O)Nc3cccnc32)c2ccccc21 [GW441756] (first compound 0.03 µM, partner dose 2 µM) | 58.3 |
| CCCCCCCCc1ccc(CCC(N)(CO)CO)cc1 [fingolimod] + O=C(O)[C@@H]1[O][Sb](=[O])([O][Sb]2(=[O])[O][C@H]([C@H](O)CO)[C@H](O)[C@H](C(=O)O)[O]2)[O][C@H]([C@H](O)CO)[C@@H]1O [stibogluconate] (first compound 10 µM, partner dose 10 µM) | 30.3 |
| Cc1ccc(NC(=O)c2cccc(N(C)C)c2)cc1NC(=O)c1ccc(O)cc1 + COc1cc(N2CCC(N3CCN(C)CC3)CC2)ccc1Nc1ncc(Cl)c(Nc2ccccc2S(=O)(=O)C(C)C)n1 [NVP-TAE684] (first compound 10 µM, partner dose 0.4 µM) | 115 |
| COc1cc2c(Oc3ccc4[nH]c(C)cc4c3F)ncnc2cc1OCCCN1CCCC1 [cediranib] + COc1cc(N2CCC(N3CCN(C)CC3)CC2)ccc1Nc1ncc(Cl)c(Nc2ccccc2S(=O)(=O)C(C)C)n1 [NVP-TAE684] (first compound 2 µM, partner dose 0.4 µM) | 75.7 |
| COc1cc2c(Oc3ccc4[nH]c(C)cc4c3F)ncnc2cc1OCCCN1CCCC1 [cediranib] + Cn1cc(/C=C2\C(=O)Nc3cccnc32)c2ccccc21 [GW441756] (first compound 2 µM, partner dose 2 µM) | 68.7 |
| COc1cc2c(Oc3ccc4[nH]c(C)cc4c3F)ncnc2cc1OCCCN1CCCC1 [cediranib] + Oc1cc(-c2nc(-c3ccccc3)[nH]c2-c2ccncc2)ccc1Cl [L779450] (first compound 2 µM, partner dose 1 µM) | 66.2 |
| NC(=O)c1ccc(N(C(N)=O)c2c(F)cccc2F)nc1-c1ccc(F)cc1F + Cc1nc(Nc2ncc(C(=O)Nc3c(C)cccc3Cl)s2)cc(N2CCN(CCO)CC2)n1 [dasatanib] (first compound 2 µM, partner dose 0.02 µM) | 71.9 |
| CC(C)(C)c1cnc(CSc2cnc(NC(=O)C3CCNCC3)s2)o1 + c1cc(-c2cnn3cc(-c4ccc(OCCN5CCCCC5)cc4)cnc23)ccn1 [Dorsomorphin] (first compound 0.05 µM, partner dose 2 µM) | 62.4 |
| CC(C)(C)c1cnc(CSc2cnc(NC(=O)C3CCNCC3)s2)o1 + C[C@@H]1CCN(C(=O)CC#N)C[C@@H]1N(C)c1ncnc2[nH]ccc12 [CP690550] (first compound 0.05 µM, partner dose 5 µM) | 71.3 |
| CC(C)(C)c1cnc(CSc2cnc(NC(=O)C3CCNCC3)s2)o1 + Oc1nc(-c2ccc(C(F)(F)F)cc2)nc2c1CSCC2 [XAV939] (first compound 0.05 µM, partner dose 10 µM) | 79.2 |
| NC(=O)c1ccc(N(C(N)=O)c2c(F)cccc2F)nc1-c1ccc(F)cc1F + C=C(c1ccc(C(=O)O)cc1)c1cc2c(cc1C)C(C)(C)CCC2(C)C [Bexarotene] (first compound 2 µM, partner dose 10 µM) | 90.3 |
| CCc1ccc(CCOc2ccc(CC3SC(=O)NC3=O)cc2)nc1 (centres undefined) [pioglitazone] + N#Cc1c(O)c2c(-c3ccc(-c4ccccc4O)cc3)csc2[nH]c1=O [A769662] (first compound 10 µM, partner dose 10 µM) | 118 |
| CC(C)(C)c1cnc(CSc2cnc(NC(=O)C3CCNCC3)s2)o1 + Cc1cc([N+](=O)[O-])ccc1NS(=O)(=O)c1cc(Cl)ccc1Cl [FH535] (first compound 0.05 µM, partner dose 5 µM) | 46.4 |
| NC(=O)c1ccc(N(C(N)=O)c2c(F)cccc2F)nc1-c1ccc(F)cc1F + CN(c1ncccc1CNc1nc(Nc2ccc3c(c2)CC(=O)N3)ncc1C(F)(F)F)S(C)(=O)=O [PF562271] (first compound 2 µM, partner dose 0.4 µM) | 107 |
| Cc1ccc(NC(=O)c2cccc(N(C)C)c2)cc1NC(=O)c1ccc(O)cc1 + Cc1cc(N2CCOCC2)cc2[nH]c(-c3c(NC[C@@H](O)c4cccc(Cl)c4)cc[nH]c3=O)nc12 [BMS536924] (first compound 10 µM, partner dose 1 µM) | 130 |
